Measured values as given in the supplement of paper PMC3334620.
Over roughly 33,000 sequences, “E-score (-0.5 to 0.5)” has its median near -0.053; the highest 2% begin near 0.37. The list shows a part of the results.

target: Hap1 (UniProt P0CE41); test: PBM E-score (8-mer binding enrichment) (E-score (-0.5 to 0.5)); higher = stronger / more preferred TF binding; most listed sequences are background and not binding sites; conditions: protein concentration: 200 nM; construct: GST-DNA-binding domain
Procedure: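 Universal 'all 10-mer' protein binding microarrays (Agilent AMADID 015681) probed with GST-tagged S. cerevisiae TFs (full-length or DBD) made by in vitro transcription/translation (PURExpress), about 100-200 nM. Bound TF was detected with fluorescent anti-GST. Each ungapped 8-mer (which stands for itself and its reverse complement) is scored by the PBM enrichment score (E-score), a modified Wilcoxon-Mann-Whitney statistic from -0.5 to +0.5, computed with the Universal PBM Analysis Suite. Scale: above 0.35 generally sequence-specific binding.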

Chain of UniProt P0CE41 (P0CE41 whole entry, the tested form may be a part): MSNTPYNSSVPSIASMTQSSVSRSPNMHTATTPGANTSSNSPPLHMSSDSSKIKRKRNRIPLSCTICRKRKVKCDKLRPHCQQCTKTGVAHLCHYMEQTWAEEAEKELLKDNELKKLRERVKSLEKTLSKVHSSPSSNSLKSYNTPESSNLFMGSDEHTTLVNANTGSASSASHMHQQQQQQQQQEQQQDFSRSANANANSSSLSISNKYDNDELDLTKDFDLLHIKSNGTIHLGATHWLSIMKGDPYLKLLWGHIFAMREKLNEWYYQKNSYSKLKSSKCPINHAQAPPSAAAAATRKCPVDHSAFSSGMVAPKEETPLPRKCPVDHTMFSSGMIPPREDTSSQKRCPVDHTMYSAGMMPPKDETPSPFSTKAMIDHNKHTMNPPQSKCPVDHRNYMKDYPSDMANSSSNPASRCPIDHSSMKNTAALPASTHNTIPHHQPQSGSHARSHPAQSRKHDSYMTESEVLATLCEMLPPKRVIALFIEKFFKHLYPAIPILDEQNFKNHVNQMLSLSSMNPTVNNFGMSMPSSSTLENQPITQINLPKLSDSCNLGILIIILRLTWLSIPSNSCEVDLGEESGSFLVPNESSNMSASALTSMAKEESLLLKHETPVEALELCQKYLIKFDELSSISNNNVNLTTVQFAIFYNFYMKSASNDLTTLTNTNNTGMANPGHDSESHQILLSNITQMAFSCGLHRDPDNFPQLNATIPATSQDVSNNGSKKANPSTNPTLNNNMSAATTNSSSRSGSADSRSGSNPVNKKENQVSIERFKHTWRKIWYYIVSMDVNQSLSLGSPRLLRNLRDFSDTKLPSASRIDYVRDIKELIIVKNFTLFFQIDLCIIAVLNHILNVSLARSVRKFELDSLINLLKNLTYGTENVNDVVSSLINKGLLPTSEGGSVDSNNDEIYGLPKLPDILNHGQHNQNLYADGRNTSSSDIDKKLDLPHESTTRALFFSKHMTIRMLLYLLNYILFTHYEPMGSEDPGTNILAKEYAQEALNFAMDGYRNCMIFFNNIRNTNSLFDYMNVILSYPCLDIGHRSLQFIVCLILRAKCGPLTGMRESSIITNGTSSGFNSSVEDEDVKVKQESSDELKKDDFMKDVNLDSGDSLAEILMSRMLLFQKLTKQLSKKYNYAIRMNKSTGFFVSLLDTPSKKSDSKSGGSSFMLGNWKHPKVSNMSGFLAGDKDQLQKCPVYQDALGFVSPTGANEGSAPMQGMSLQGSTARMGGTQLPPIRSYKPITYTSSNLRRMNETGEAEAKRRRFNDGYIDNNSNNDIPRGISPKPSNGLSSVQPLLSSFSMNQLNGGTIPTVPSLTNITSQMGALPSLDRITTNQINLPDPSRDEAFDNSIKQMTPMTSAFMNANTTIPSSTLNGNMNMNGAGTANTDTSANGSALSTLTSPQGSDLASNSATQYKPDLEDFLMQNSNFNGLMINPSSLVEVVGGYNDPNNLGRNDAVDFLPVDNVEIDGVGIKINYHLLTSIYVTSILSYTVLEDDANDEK

Sequence | PBM E-score
AGCGCTTC | 0.112
CCCGAACG | 0.272
CAAAATGG | 0.0452
TAACGGAA | 0.375
CACTTGGG | -0.142
ACCCGGGT | 0.393
AAGAGCAT | -0.101
ACATGGTG | -0.243
CTCGAGGA | -0.254
ACGGGACC | -0.0272
ATGGCAAG | -0.163
AGTATCAG | -0.168
AAATGTTC | -0.108
CTTTGAGA | -0.176
ATTCCGCA | 0.196
AACCCATG | -0.0437
CCCCCTTC | -0.186
CAACATTC | -0.146
TGCCACAA | -0.236
CGTTACGC | -0.00422
CTAAAAGC | 0.0727
CCCAGGCG | -0.125
CTCTTCTC | -0.103
CATTCACA | -0.223

Sequence | PBM E-score
ACTTGCTC | -0.2
ACCATAAT | 0.00445
CATGTTTA | -0.0786
CATGTGGG | -0.119
AACGGTTC | 0.0606
CACAGTGA | -0.266
ACCTGTTC | -0.142
AAAGACAA | -0.0535
CCGGCAAA | 0.387
GTAATAAA | 0.108
AGCACAAT | -0.205
ACACCATC | -0.317
GTCAGTTA | -0.131
ACCGACGT | 0.185
ATCTACTG | -0.17
GCACGTTA | -0.0602
AAGATTGG | -0.113
GGCACGAC | -0.152
AAATTCTG | -0.0955
CAACTTCC | 0.0904
ACCTAGTG | -0.152
AGAGACTA | 0.0586
CACAGCTC | -0.235
GCGCCATA | -0.00075

Sequence | PBM E-score
AGTTTGCA | -0.2
AAATGCAG | -0.165
TCAGGGAA | -0.145
TCTTGCCA | -0.195
CGTCGTAA | -0.158
CACAGATC | -0.0863
AATGGGTC | -0.019
CCGATCCC | 0.285
CAGCATCG | -0.168
AGGGATTC | -0.141
CGCTGGCA | -0.0955
CCATATGC | 0.0891
CCTATTAG | -0.0974
CCCCATAA | -0.0249
GAAATGAC | 0.0272
AATTTTGC | -0.126
AAGCCCTG | -0.185
AATATGCG | 0.0556
GCAGGACC | -0.0483
CCACTATA | -0.102
GTTTCCGA | 0.379
GCCGGAGC | 0.344
CCCATTCG | 0.0597
TAGAAATA | -0.00987

Sequence | PBM E-score
AGTGAACA | -0.165
TGGTCGAA | -0.32
GATTTGTA | -0.0917
GTTGTTGA | -0.253
CGCTTTAG | 0.0453
AGAATGCC | -0.167
GGAACTGA | 0.164
ACGGATAG | 0.11
ACGGCCGA | 0.419
CAGCGTCG | 0.00157
ATGTAAGG | -0.155
CCAGAGCC | -0.211
GACTAATA | -0.0323
CGCTTCTC | 0.0163
GATCTATA | -0.00468
ACCTGTCC | 0.0413
CTGGCCAC | -0.21
CAAACCCG | 0.356
AGTTAGCC | 0.0194
GCCATCGA | 0.0856
CAGGAGGC | -0.0654
CACGAGGC | -0.0553
